Laboratory results reported in the supplement of paper PMC9927326.
MIC of clinical C. albicans isolates, CLSI broth microdilution (ranges and time not stated); higher = less susceptible. Call: susceptible or wild type [S] / resistant or non-wild type [R] by CLSI breakpoints or epidemiological cut-offs; intermediate and dose-dependent carry no call here (the paper groups them with resistant). '<=' and '>=' mark each drug's lowest and highest value, inferred; the source prints them plain. Isolates are numbered anew.

How the values were obtained:
Assay in all cases: CLSI broth microdilution.
[1] = compound: CCC(C)n1ncn(-c2ccc(N3CCN(c4ccc(OCC5COC(Cn6cncn6)(c6ccc(Cl)cc6Cl)O5)cc4)CC3)cc2)c1=O [itraconazole]
[2] = compound: CCCCCOc1ccc(-c2cc(-c3ccc(C(=O)N[C@H]4C[C@@H](O)[C@@H](O)NC(=O)[C@@H]5[C@@H](O)[C@@H](C)CN5C(=O)[C@H]([C@H](O)CC(N)=O)NC(=O)[C@H]([C@H](O)[C@@H](O)c5ccc(O)c(OS(=O)(=O)O)c5)NC(=O)[C@@H]5C[C@@H](O)CN5C(=O)[C@H]([C@@H](C)O)NC4=O)cc3)no2)cc1 [micafungin]
[3] = compound: CCCCCOc1ccc(-c2ccc(-c3ccc(C(=O)N[C@H]4C[C@@H](O)[C@@H](O)NC(=O)[C@@H]5[C@@H](O)[C@@H](C)CN5C(=O)[C@H]([C@@H](C)O)NC(=O)[C@H]([C@H](O)[C@@H](O)c5ccc(O)cc5)NC(=O)[C@@H]5C[C@@H](O)CN5C(=O)[C@H]([C@@H](C)O)NC4=O)cc3)cc2)cc1 [anidulafungin]
[4] = compound: CC[C@@H]([C@H](C)O)n1ncn(-c2ccc(N3CCN(c4ccc(OC[C@@H]5CO[C@@](Cn6cncn6)(c6ccc(F)cc6F)C5)cc4)CC3)cc2)c1=O [posaconazole]
[5] = compound: CC[C@H](C)C[C@H](C)CCCCCCCCC(=O)N[C@H]1C[C@@H](O)[C@@H](NCCN)NC(=O)[C@@H]2[C@@H](O)CCN2C(=O)[C@H]([C@H](O)CCN)NC(=O)[C@H]([C@H](O)[C@@H](O)c2ccc(O)cc2)NC(=O)[C@@H]2C[C@@H](O)CN2C(=O)[C@H]([C@@H](C)O)NC1=O [caspofungin]
[6] = compound: C[C@@H](c1ncncc1F)[C@](O)(Cn1cncn1)c1ccc(F)cc1F [voriconazole]
[7] = compound: C[C@@H]1[C@H](O)[C@@H](C)/C=C/C=C/C=C/C=C/C=C/C=C/C=C/[C@H](O[C@@H]2O[C@H](C)[C@@H](O)[C@H](N)[C@@H]2O)C[C@@H]2O[C@](O)(C[C@@H](O)C[C@@H](O)[C@H](O)CC[C@@H](O)C[C@@H](O)CC(=O)O[C@H]1C)C[C@H](O)[C@H]2C(=O)O [amphotericin B]
[8] = compound: Nc1[nH]c(=O)ncc1F [flucytosine]
[9] = compound: OC(Cn1cncn1)(Cn1cncn1)c1ccc(F)cc1F [fluconazole]

Row | Test System | MIC [1] | MIC [2] | MIC [3] | MIC [4] | MIC [5] | MIC [6] | MIC [7] | MIC [8] | MIC [9]
1 | Candida albicans isolate 100 (Erg11p: V488I,E266D, Fur1p: WT, Tac1p: 896S,M170V,S108N) | 0.03 mg/L [S] | ≤ 0.008 mg/L [S] | 0.03 mg/L [S] | 0.03 mg/L [S] | 0.03 mg/L [S] | 0.015 mg/L [S] | 0.25 mg/L [S] | ≤ 0.06 mg/L [S] | 0.5 mg/L [S]
2 | Candida albicans isolate 250 (Erg11p: V488I,E266D, Fur1p: WT, Tac1p: N896S,I558V,A377V,F189S,N174D,M170I,K87N) | 0.03 mg/L [S] | 0.015 mg/L [S] | 0.06 mg/L [S] | 0.015 mg/L [S] | 0.06 mg/L [S] | ≤ 0.008 mg/L [S] | 0.25 mg/L [S] | ≤ 0.06 mg/L [S] | 0.25 mg/L [S]
3 | Candida albicans isolate 235 (Erg11p: E266D, Fur1p: WT, Tac1p: T885K,I558V,A430V,A377V,F189S,N174D,M170I,M170V,K87N) | 0.06 mg/L [S] | ≤ 0.008 mg/L [S] | 0.06 mg/L [S] | 0.03 mg/L [S] | 0.06 mg/L [S] | ≤ 0.008 mg/L [S] | 0.5 mg/L [S] | ≤ 0.06 mg/L [S] | 0.25 mg/L [S]
4 | Candida albicans isolate 149 (Erg11p: WT, Fur1p: Q181*, Tac1p: M170V) | 0.03 mg/L [S] | 0.015 mg/L [S] | 0.03 mg/L [S] | 0.015 mg/L [S] | 0.03 mg/L [S] | ≤ 0.008 mg/L [S] | 0.5 mg/L [S] | ≤ 0.06 mg/L [S] | 0.5 mg/L [S]
5 | Candida albicans isolate 198 (Erg11p: G448E,Y132H, Fur1p: R101C, Tac1p: WT) | 0.12 mg/L [S] | 0.015 mg/L [S] | ≤ 0.015 mg/L [S] | 0.06 mg/L [S] | 0.03 mg/L [S] | 0.5 µg/mL | 0.25 mg/L [S] | ≤ 0.06 mg/L [S] | 16 mg/L [R]
6 | Candida albicans isolate 56 (Erg11p: WT, Fur1p: WT, Tac1p: N896S) | 0.03 mg/L [S] | ≤ 0.008 mg/L [S] | ≤ 0.015 mg/L [S] | 0.03 mg/L [S] | 0.03 mg/L [S] | ≤ 0.008 mg/L [S] | 0.5 mg/L [S] | 0.12 mg/L [S] | 0.25 mg/L [S]
7 | Candida albicans isolate 65 (Erg11p: E266D, Fur1p: WT, Tac1p: C908Y,A377V,N174D,M170I,I109N,K87N) | 0.06 mg/L [S] | 0.015 mg/L [S] | 0.06 mg/L [S] | 0.03 mg/L [S] | 0.03 mg/L [S] | ≤ 0.008 mg/L [S] | 0.5 mg/L [S] | ≤ 0.06 mg/L [S] | 0.5 mg/L [S]
8 | Candida albicans isolate 107 (Erg11p: D153E, Fur1p: WT, Tac1p: N896S) | ≤ 0.015 mg/L [S] | 0.015 mg/L [S] | ≤ 0.015 mg/L [S] | 0.015 mg/L [S] | 0.03 mg/L [S] | ≤ 0.008 mg/L [S] | 0.25 mg/L [S] | ≤ 0.06 mg/L [S] | 0.25 mg/L [S]
